In the supplement of paper PMC9174493:
The list shows a part of the results. Single values of this set are uncertain. Values with irradiation are relative to irradiated vehicle.

These compounds were tested on A549-Dual (assay: NF-kB reporter (SEAP) activity, viability-corrected, relative to vehicle (fold change vs vehicle); higher = more activation of STING-IRF / NF-kB immune response reporter). Conditions: 0.3 µM; irradiation: 8 Gy/4 fr.
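Also: viability correction based on the alamar blue assay, with concentrations leaving 10% survival or less dropped.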

| Compound | NF-kB reporter |
| --- | --- |
| C=CC(=O)Nc1cc(Nc2nccc(-c3cn(C)c4ccccc34)n2)c(OC)cc1N(C)CCN(C)C [Osimertinib (AZD9291)] | 0.915 |
| CC1CC2C3CCC4=CC(=O)C=CC4(C)C3(F)C(O)CC2(C)C1(O)C(=O)COP(=O)([O-])[O-].[Na+].[Na+] (centres undefined) [Dexamethasone Sodium Phosphate] | 1.2 |
| O=C(O)CCCN1CCC(OC(c2ccc(Cl)cc2)c2ccccn2)CC1.O=S(=O)(O)c1ccccc1 (centres undefined) [Bepotastine Besilate] | 1.08 |
| CC(=O)OC(C)C(C)C(=O)OCC12C3CC4(C)C(=CCC5C6(C)CCC(OC7OC(C(=O)[O][Na])C(OC8OC(CO)C(O)C(O)C8O)C(O)C7OC7OCC(O)C(O)C7O)C(C)(CO)C6CCC54C)C1CC(C)(C)C(O3)C2O (centres undefined) [Sodium Aescinate] | 1.57 |
| Nc1nc(CC(=O)Nc2ccc(CCNCC(O)c3ccccc3)cc2)cs1 (centres undefined) [Mirabegron] | 0.877 |
| O=C1OC(OC(=O)c2cccnc2Nc2cccc(C(F)(F)F)c2)c2ccccc21 (centres undefined) [Talniflumate] | 1 |
| CN1C(C(=O)Nc2ccccn2)=C(O)c2sccc2S1(=O)=O [Tenoxicam] | 1.09 |
| CCC(=O)NS(=O)(=O)c1ccc(-c2c(-c3ccccc3)noc2C)cc1 [Parecoxib] | 1.18 |
| CNCC(O)C(O)C(O)C(O)CO.Cc1c(Nc2ncccc2C(=O)O)cccc1C(F)(F)F [Flunixin Meglumin] | 0.978 |
| Cc1cncc(CN2CCC(=C3c4ccc(Cl)cc4CCc4cccnc43)CC2)c1.O=C(O)/C=C/C(=O)O [Rupatadine Fumarate] | 0.803 |
| COC(=O)CC(O)(CCCC(C)(C)O)C(=O)OC1C(OC)=CC23CCCN2CCc2cc4c(cc2C13)OCO4 (centres undefined) [Homoharringtonine] | 0.864 |
| CC(C(=O)[O-])c1ccc(CC2CCCC2=O)cc1.[Na+] (centres undefined) [Loxoprofen Sodium] | 1.14 |
| C=C1c2cccc(O)c2C(=O)C2=C(O)C3(O)C(=O)C(C(N)=O)=C(O)C(N(C)C)C3C(O)C12.Cl (centres undefined) [Methacycline HCl] | 1.05 |
| CC1CCC2(C(=O)OC3OC(COC4OC(CO)C(OC5OC(C)C(O)C(O)C5O)C(O)C4O)C(O)C(O)C3O)CCC3(C)C(=CCC4C5(C)CC(O)C(O)C(C)(CO)C5CCC43C)C2C1C (centres undefined) [Asiaticoside] | 1.11 |
| Nc1nc(F)nc2c1ncn2C1OC(CO)C(O)C1O (centres undefined) [Fludarabine] | 0.91 |
| O=NN(CCCl)C(=O)NC1CCCCC1 [Lomustine] | 0.932 |
| O=CC(O)C(O)C(O)C(O)COC1OC(CO)C(O)C(O)C1O (centres undefined) [Melibiose] | 1.17 |
| O.S=c1nc[nH]c2nc[nH]c12 [6-Mercaptopurine (6-MP) Monohydrate] | 0.848 |
| CC(C(=O)O)c1cccc(C(=O)c2ccccc2)c1 (centres undefined) [Ketoprofen] | 0.897 |
| CNC1CCC(c2ccc(Cl)c(Cl)c2)c2ccccc21.Cl (centres undefined) [Sertraline HCl] | 1.12 |
| CC1(C)OC2CC3C4CCC5=CC(=O)CCC5(C)C4(F)C(O)CC3(C)C2(C(=O)CCl)O1 (centres undefined) [Halcinonide] | 0.921 |
| CC(=O)OC12COC1CC(O)C1(C)C(=O)C(O)C3=C(C)C(OC(=O)C(O)C(NC(=O)OC(C)(C)C)c4ccccc4)CC(O)(C(OC(=O)c4ccccc4)C21)C3(C)C (centres undefined) [Docetaxel] | 1.16 |
| CCN(CC)Cc1cc(Nc2ccnc3cc(Cl)ccc23)ccc1O.Cl.Cl [Amodiaquine hydrochloride] | 1.03 |
| Cc1c(N)c(=O)n(-c2ccccc2)n1C [4-Aminoantipyrine] | 0.868 |
| Cn1cnc2c(F)c(Nc3ccc(Br)cc3F)c(C(=O)NOCCO)cc21 | 0.946 |
| CC1(C)C2CCC1(C)C(O)C2 (centres undefined) [Borneol] | 1.1 |
| CC1CC2C3CCC4=CC(=O)C=CC4(C)C3(Cl)C(O)CC2(C)C1(OC(=O)c1ccco1)C(=O)CCl (centres undefined) [Mometasone furoate] | 0.653 |
| CCN(CC)CCCC(C)Nc1ccnc2cc(Cl)ccc12.O=P(O)(O)O.O=P(O)(O)O (centres undefined) [Chloroquine Phosphate] | 1.27 |
| COc1cc2c(cc1Cc1cccc(Cl)c1F)c(=O)c(C(=O)O)cn2C(CO)C(C)C (centres undefined) [Elvitegravir (GS-9137, JTK-303)] | 0.933 |
